From US11479601B2, “Antibodies specific to Sonic Hedgehog and method of use thereof” (The Regents of the University of California, priority 2016, dated 2022) come the findings set out here.

The assay has as its target T1, full-length Shh polypeptide (Homo sapiens, UniProt Q15465).
T1 construct: Expression of full-length Shh polypeptide in transfected cells; expressed in transfected cells; pCMV-Shh plasmid (Origene)
The assay is described as follows: Flow cytometry: binding of C-terminal Shh antibodies to full-length Shh expressed in transfected cells. The conditions noted are these: antibody at 1:10 (Commercial at 1:50). On the procedure: FACS (1:40). The secondary antibody was a donkey anti-mouse FITC-linked antibody (ab97029, 1:100, Abcam). For cell analysis after treatment assays (chemotherapy or GDC0449), a dead cell marker (SytoxRed, Invitrogen) was also used. For human fresh samples, an anti-CD45 APC-linked antibody (ab28106, 1:100, Abcam), and a dead cells marker (SytoxRed, Invitrogen) were added. For staining of stable transfected cell lines, mouse anti-HA antibody (Abcam, 1:100) and rabbit anti-FLAG antibody (Cell Signaling; 1:400) were used. Corresponding secondary antibodies were donkey anti-mouse AlexaFluor647 (Invitrogen, 1:1000) and donkey anti-rabbit AlexFluor594 (Invitrogen, 1:1000) antibodies. Flow cytometry analyses were performed on AccuriC6 flow cytometer (BD Biosciences), and FACS on FACSAria II (BD Biosciences). Flow analyses were based at least on 200,000 cells, and each test was made at least in triplicate. For all experiments, a negative control with cells processed without primary antibody was used. […]
Expression of full-length Shh polypeptide in transfected cells increased the percentage of cells labeled with the Shh antibodies produced by two of the subclones (2D9 and 2G4) identified after the screening, compared to the percentage of untransfected cells labeled by the same antibodies, as measured by flow cytometry (Table 3).

B1: 2D9: purified mouse monoclonal C-terminal Shh antibody from hybridoma sub-clone 2D9 of clone 1C11, IgG1 kappa (antibody)
heavy: EVKLVESGGGLVKPGGSLKLSCAASGFTFSSYTMSWVRQTPAKRLEWVATISSGGGNTYYPDSVKGRFTISRDNARNTLYLQMSSLRSEDTAMYYCARDYRSLFAYWGQGTLVTVSAAKTTPPSVYPLAPGSAAQTNSMVTLGCLVKGYFPEPVTVTWNSGSLSSGVHTFPAVLQSDLYTLSSSVTVPSSTWPSETVTCNVAHPASSTKVDKKIVPRDCGCKPCICTVPEVSSVFIFPPKPKDVLTITLTPKVTCVVVDISKDDPEVQFSWFVDDVEVHTAQTQPREEQFNSTFRSVSELPIMHQDWLNGKEFKCRVNSAAFPAPIEKTISKTKGRPKAPQVYTIPPPKEQMAKDKVSLTCMITDFFPEDITVEWQWNGQPAENYKNTQPIMDTDGSYFIYSKLNVQKSNWEAGNTFTCSVLHEGLHNHHTEKSLSHSPGK
light: QIVLTQSPAIMSASPGEKVTITCSASSSVSYMHWFQQKPGTSPKLWIYSTSNLASGVPARFSGSGSGTSYSLTISRMEAEDAATYYCQQRSSYPFTFGSGTKLEIKRADAAPTVSIFPPSSEQLTSGGASVVCFLNNFYPKDINVKWKIDGSERQNGVLNSWTDQDSKDSTYSMSSTLTLTKDEYERHNSYTCEATHKTSTSPIVKSFNRNEC
B1: the “percentage of cells labeled with the Shh antibody (flow cytometry)” value (+SHh Full-Length transfection) was determined as 1.43% and the “percentage of cells labeled with the Shh antibody (flow cytometry)” value (No transfection) came out at 0.17%.
